Laboratory results taken from PubChem BioAssay AID504832 (National Center for Advancing Translational Sciences (NCATS), 2011).
The whole screen tested about 310,000 compounds, of which about 18,000 (5.8%) were called active. Inconclusive means that the source gave no clear call. Such entries were picked first, then a sample of the others. Calls come from the whole dose curve; as a rule, active = well fitted inhibition curve with a large enough effect; inconclusive = small, poorly fitted or top-dose-only effect, or another doubt; inactive = no such curve, though single readings can be large or run the other way. No potency is given beside an inconclusive call; the fits are too rough.

experiment: Primary qHTS for delayed death inhibitors of the malarial parasite plastid, 48 hour incubation; settings: P. falciparum luciferase growth in erythrocytes; series mostly up to 28.7 µM; activity change, negative = inhibition: at the top concentration
Procedure, shortened: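 Luciferase-expressing parasites in RBCs, 2% Hct / 0.1% parasitemia final; RPMI 1640 + 0.5% Albumax; 37 C, 5% CO2, one generation; luminescence read-out, lower signal = inhibition.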
% is set by controls: 0 for no effect and ±100 for the full control effect; potency is the fitted concentration of half-maximal effect; tags give direction and shape of the fitted curve.

SMILES | Potency | activity change, negative = inhibition
COCCNS(=O)(=O)c1ccc2c(c1)C(=NO)c1cc(S(=O)(=O)NCCOC)ccc1-2 | inconclusive [inhibitor, single point] | –
O=C(Nc1cc(S(=O)(=O)N2CCCCC2)ccc1N1CCOCC1)c1cc(=O)[nH]c2ccccc12 | inconclusive [inhibitor, partial curve] | –
COc1cc(C(=O)NCCCNc2ccc([N+](=O)[O-])cc2)cc(OC)c1OC | inconclusive [inhibitor, single point] | –
Cc1cc(C(=O)NC2CCCCC2)c(C)o1 | – | inactive: -4.21%
Cc1ccccc1C(=O)NC(=S)Nc1ccc(Oc2ccc(Cl)cc2)cc1 | inconclusive [inhibitor, partial curve, poor fit] | –
COC(=O)C(Cc1c[nH]c2ccccc12)N1CCS(=O)(=O)CC1 (configuration not stated) | – | inactive: 1.87%
Cc1c(C(=O)NC(C)c2ccccc2)c(-c2ccccc2)nn1-c1ccccc1 (configuration not stated) | active: 10.4 µM | –
Cc1ccccc1C(=O)NC1CCN(Cc2nnnn2CCc2ccccc2)CC1 | – | inactive: -18%
O=C1/C(=C/c2ccc([N+](=O)[O-])cc2)C=C(c2ccccc2)N1c1ccc(O)cc1 | inconclusive [inhibitor, single point] | –
CCCOc1cccc(C2C(C(=O)c3cccs3)=C(O)C(=O)N2Cc2cccnc2)c1 (configuration not stated) | inconclusive [inhibitor, full curve, poor fit] | –
CC(C)Oc1cccc(C(=O)Nc2ccc(CN3CCOCC3)cc2)c1 | – | inactive: -0.372%
COc1ccc(-c2nc(C(N)=O)c3[nH]c(=O)n(-c4cccc(Cl)c4)c3n2)cc1OC | inconclusive [inhibitor, single point] | –
COc1cccc(-c2nc(CS(=O)(=O)CC(=O)NCCc3ccc(OC)cc3OC)c(C)o2)c1 | inconclusive [inhibitor, partial curve, poor fit] | –
CCCC(=O)NC(c1ccc(C)cc1)c1ccc2cccnc2c1O (configuration not stated) | active: 3.7 µM | –
OCC1(Cc2cccc(C(F)(F)F)c2)CCN(Cc2cc3ccccc3o2)CC1 | inconclusive [inhibitor, partial curve] | –
O=C(Nc1ccc(S(=O)(=O)N2CCOCC2)cc1)C1CCN(S(=O)(=O)c2ccccc2)CC1 | inconclusive [inhibitor, partial curve] | –
Cc1ccc(S(=O)(=O)Nc2cccc(C(=O)NCC(c3ccco3)N3CCCCC3)c2)cc1F (configuration not stated) | inconclusive [inhibitor, partial curve] | –
COc1cccc(CN(C(=O)COc2ccc(Cl)cc2)C2CCS(=O)(=O)C2)c1 (configuration not stated) | inconclusive [inhibitor, partial curve, poor fit] | –
CC(=O)Nc1sc(C)c(C)c1C(=O)OCC(=O)N(CCC#N)c1cc(C)cc(C)c1 | inconclusive [inhibitor, single point] | –
Cc1cc(C)cc(NC(=O)CCc2c(C)nn(-c3ccc(N4CCCCC4)nn3)c2C)c1 | – | inactive: 34%
CCN(CC)CCC[C@H](C)Nc1c2ccc(Cl)cc2nc2ccc(OC)cc12 | active: 0.0379 µM | –
CCC(C)NC(=O)CCc1c(C)nc2c(c(C)nn2-c2ccccc2)c1C (configuration not stated) | inconclusive [inhibitor, partial curve] | –
Cc1ccc(S(=O)(=O)Cn2nnnc2C(CC(C)C)N2CCN(c3ccc(F)cc3)CC2)cc1 (configuration not stated) | inconclusive [inhibitor, full curve] | –

SMILES | Potency | activity change, negative = inhibition
CS(=O)(=O)N1CCN(c2ccc([N+](=O)[O-])c(NCc3ccccc3)c2)CC1 | inconclusive [inhibitor, single point] | –
CC(C)C(c1nnnn1C(C)(C)C)N1CCC(Cc2ccccc2)CC1 (configuration not stated) | active: 9.28 µM | –
NNC(=O)CCCCCCCCCCOCCCCO | inconclusive [inhibitor, full curve, poor fit] | –
Cn1c(=O)c2sc3c(c2n(CC(=O)Nc2ccccc2)c1=O)COC(C)(C)C3 | inconclusive [inhibitor, single point] | –
Cc1c(C)c(C)c2[nH]c(-c3ccc4c(c3)OCO4)nc2c1C | active: 2.33 µM | –
CC1CC(NC(=O)CCn2c(=O)oc3ccccc32)CC(C)(C)C1 (configuration not stated) | inconclusive [inhibitor, single point] | –
CC(=O)N1C(C(=O)O)Cc2c([nH]c3ccccc23)C1(C)C (configuration not stated) | inconclusive [inhibitor, partial curve, poor fit] | –
COc1cccc(NC(=O)c2cc(C(=O)Nc3cccc(OC)c3)n(C)n2)c1 | inconclusive [inhibitor, single point] | –
Cc1cccc(NS(=O)(=O)c2ccc(-c3cnc(C4CC4)o3)cc2)c1 | – | inactive: -2.4%
Cc1ccccc1NC(=S)NCc1ccc(F)cc1 | inconclusive [inhibitor, single point] | –
Cc1ccc([N+](=O)[O-])cc1-c1ccc2cccc(C)c2n1 | inconclusive [inhibitor, single point] | –
NC(=S)N=Nc1c(O)n(CCCl)c2ccc(Br)cc12 | inconclusive [inhibitor, single point] | –
COc1cccc(/C=C2\C(=O)N(c3cccc(C)c3)C(=O)c3ccccc32)c1 | inconclusive [inhibitor, single point] | –
COc1cc2c(cc1OC)C(C)N(C(=O)Nc1cc(C)cc(C)c1)CC2 (configuration not stated) | inconclusive [inhibitor, partial curve, poor fit] | –
Cc1ccsc1-c1nc(CN2C[C@@H](C)O[C@@H](C)C2)c(C)o1 | – | inactive: -7.42%
CCOC(=O)NN1C(=O)c2ccccc2NC1c1cccs1 (configuration not stated) | – | inactive: 39.9%
CCOc1cc(-c2cc(-c3ccc(N)cc3)nc(N)c2C#N)ccc1O | active: 11.7 µM | –
COC(=O)c1cccnc1Oc1ccccc1 | inconclusive [inhibitor, partial curve, poor fit] | –
CN1C(=O)c2c(sc3c2CCCC3)NC1c1ccccc1O (configuration not stated) | inconclusive [inhibitor, full curve] | –
NC(=O)N/N=C/c1cccc(C(F)(F)F)c1 | inconclusive [inhibitor, single point] | –
c1ccc(OCc2nn3c(-c4ccccn4)nnc3s2)cc1 | – | inactive: 37.8%
COc1ccc(CCN(C)C2CCCN(S(=O)(=O)c3ccc(C)cc3)C2)cc1OC (configuration not stated) | inconclusive [inhibitor, partial curve] | –
CCCc1c(C)nc2ccccc2c1SCCC#N | inconclusive [inhibitor, single point] | –

SMILES | Potency | activity change, negative = inhibition
COc1ccc(CC(=O)Nc2ccccc2NC(=O)c2ccco2)cc1OC | inconclusive [inhibitor, partial curve, poor fit] | –
Cc1nc(NC(=O)CSC2=NCCS2)sc1C(=O)N(C)C | inconclusive [inhibitor, partial curve, poor fit] | –
CCCC[N+]1(C)C2CC(OC(=O)C(CO)c3ccccc3)CC1C1OC12 (configuration not stated) | inconclusive [inhibitor, single point] | –
CCCCn1c(N)c(N(CC(C)C)C(=O)C2CCN(C(=O)c3ccc(Cl)cc3)CC2)c(=O)[nH]c1=O | – | inactive: 2.96%
COc1cccc(N(C(=O)c2snc(C(N)=O)c2N)C(C(=O)NCC2CCCO2)c2c[nH]c3ccccc23)c1 (configuration not stated) | active: 9.28 µM | –
CCN(CC)CCN1Cc2ccccc2C1=N | inconclusive [inhibitor, single point] | –
O=C(COc1ccccc1)Nc1ccc(-c2ccc(N3CCOCC3)nn2)cc1 | inconclusive [inhibitor, full curve, poor fit] | –
O=C1c2ccccc2C(O)(c2ccccc2)N1c1ccncc1 (configuration not stated) | active: 11.7 µM | –
CCOC(=O)c1c(C)[nH]c(C(=O)N(C)Cc2cccc(OC)c2OC)c1C | inconclusive [inhibitor, partial curve, poor fit] | –
Cc1ccc(Nc2c(-c3ccccc3O)nc3ncccn23)cc1 | inconclusive [inhibitor, single point] | –
Cc1cc(C)c(S(=O)(=O)c2ccccc2C)c(OCC(C)(C)C)n1 | inconclusive [inhibitor, partial curve] | –
COCCN(CCOC)c1nc(N)c2c(N)nc3c(c2c1C#N)CC(=O)N3Cc1ccc(Cl)cc1 | active: 1.65 µM | –
Cn1c(=O)oc2cc(S(=O)(=O)Nc3ccc4c(c3)OCO4)ccc21 | inconclusive [inhibitor, single point] | –
Cc1cc(C)cc(NC(=O)N2CCNC(=O)C2CC(=O)Nc2cc(Cl)ccc2Cl)c1 (configuration not stated) | – | inactive: 44.1%
CC(C)(C)N(Cc1cc2ccccc2[nH]c1=O)C(=O)C1CCCCC1 | inconclusive [inhibitor, partial curve, poor fit] | –
CCOC(=O)Nc1nc(-c2ccccc2)c(C(=O)c2ccc(Cl)cc2)s1 | inconclusive [inhibitor, single point] | –
O=C(N/N=C/c1cccnc1)c1ccc(NC(=O)c2ccc(F)cc2)cc1 | – | inactive: -9.95%
CCOC(=O)c1c(NC(=O)COc2ccccc2F)sc2c1CC(C)(C)NC2(C)C | active: 11.7 µM | –
CCN(CC)c1ccc(-n2c(C)c(C(C)=O)c(C(C)=O)c2C)cc1 | inconclusive [inhibitor, partial curve] | –
CCOC(=O)c1ccc(NC(=S)N2CCC(C(N)=O)(N3CCCCC3)CC2)cc1 | inconclusive [inhibitor, single point] | –
COc1nn(C(C)C(=O)N2N=C(C(F)F)CC2(O)C(F)F)cc1[N+](=O)[O-] (configuration not stated) | – | inactive: 1.51%
